Measured values from publication PMC12136788.
The list shows a part of the results.

T1: UNK ZnF1-6 (called full-length) (human, UniProt Q9C0B0 30-357)
T1 sequence: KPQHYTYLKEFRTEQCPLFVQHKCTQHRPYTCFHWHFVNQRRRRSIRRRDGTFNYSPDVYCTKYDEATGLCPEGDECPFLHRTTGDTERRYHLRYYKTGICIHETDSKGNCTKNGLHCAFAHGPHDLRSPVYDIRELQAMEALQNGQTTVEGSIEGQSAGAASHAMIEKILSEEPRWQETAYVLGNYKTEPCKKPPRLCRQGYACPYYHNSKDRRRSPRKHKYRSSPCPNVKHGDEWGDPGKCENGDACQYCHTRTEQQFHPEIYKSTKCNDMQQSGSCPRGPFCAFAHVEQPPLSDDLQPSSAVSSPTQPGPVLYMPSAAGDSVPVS

B1: chr1:92387783:92387894:+|3pUTR|ENSG00000122484|unk|total|mutant (ssRNA)
RNA: GGGAGUUCUACAGUCCGACGAUCGGGAGCUCCGUGGGCAAGGAGGCCGGGAUAUAAUUUCUCUUCUUGGCUCCACCAGUAAUCCGCUCUGUGGCCCAGUCACCUAAACUUUCUGGACUUCAGUUCAGGUUGUAUGGCAGCCGGCAACAGAGGAUUGAGCAUCA
B2: chr21:30561100:30561289:-|CDS|ENSG00000244362|control|control|control (ssRNA)
RNA: GGGAGUUCUACAGUCCGACGAUCAGCUACUAUGGAGGCCUAGGCUACGGCUGUGGAGGAUUCGGUGGCCUGGGCUAUGGCUAUAGCUGUGGAUGUGGCAGCUUCCGCAGACUGGGCUAUGGCUGUGGCUAUGGAGGCUACAGACAACAGAGGAUUGAGCAUCA
B3: chr12:104760787:104760888:+|3pUTR|ENSG00000171310|unk|total|mutant (ssRNA)
RNA: GGGAGUUCUACAGUCCGACGAUCUUCUUUUCUAAUGGCAUUGAAACUUUAAAAAAAAUGGAUUCAACUGUUUUUGCAGAAUGCCGAAAGUAUUCUGUGUCCUUGGUUAAAGAAAUCCACUUGUGAAGUGUGCCUGGAAAAUGACAACAGAGGAUUGAGCAUCA
B4: chr4:75812186:75812332:+|CDS|ENSG00000138768|unk|total|mutant (ssRNA)
RNA: GGGAGUUCUACAGUCCGACGAUCAGAGCAGCUGGAUUCAUCUAACCGUACCAUUGCCAUUUUACAAACUGAGAAAGACAAACCCGAGUUGGAAAUUACAGAUUCUAAAAAAGAACAAGAUGAUCUCUUGGUGCUCUUGGCCGACAACAGAGGAUUGAGCAUCA
B5: chr6:42978268:42979150:-|CDS|ENSG00000124587|control|control|control (ssRNA)
RNA: GGGAGUUCUACAGUCCGACGAUCACUUCACAGCCGCACUUGGCUAGGGUGCAGGUCCUAGAACCUCGCUGGGACCUCUCUGAUAGACUGGGACCCGGCUCUGGACCGCUGGGAGAGCCCCUCGCUGACGGACUGGCGCUUGUCCAACAGAGGAUUGAGCAUCA
B6: chr20:7982266:7982367:-|CDS|ENSG00000125827|msi1|total|mutant (ssRNA)
RNA: GGGAGUUCUACAGUCCGACGAUCGAGAAGUGAGGCCAAUGAUCAGGGGCCCCCAGGAGAGGACGGUGUGACCCGGGAGGAAGCCGAGCCUGAGGAGGCUGAAGAAGGCAUCUCUGAGCAACCCUGCCCAGCUGACACAGAGGUCAACAGAGGAUUGAGCAUCA
B7: ENSG00000070961:be:win_601|CDS|ENSG00000070961|bound_else_gene|NA|bound_elsewhere_windowed (ssRNA)
RNA: GGGAGUUCUACAGUCCGACGAUCCAGGUCAUUCAGAUACCUGUAGCUGACAUUACUGUUGGAGAUAUUGCUCAAGUGAAAUAUGGUGAUCUUCUUCCAGCUGACGGCAUACUUAUUCAAGGCAACGAUCUUAAAAUUGAUGAACAACAGAGGAUUGAGCAUCA
B8: chr17:41691520:41691533:+|3pUTR|ENSG00000173812|msi1_unk|FALSE|overlapping (ssRNA)
RNA: GGGAGUUCUACAGUCCGACGAUCGGAACAAAUCUCAAACUGAUCCAUCAGUCAUGUAGCUAGCUGUAGAGCUUGCAACUUAAUAGCAGCAGCUGCCCAAUGCCAUGUGAAGUAACAAACUGGUUUUUGGUUUUUUUUUCCCCUCAACAGAGGAUUGAGCAUCA
B9: chr22:41177882:41177989:+|CDS|ENSG00000100393|unk|FALSE|unique (ssRNA)
RNA: GGGAGUUCUACAGUCCGACGAUCCAAAACCUUUUGCGGACUCUCAGGUCUCCCAGCUCUCCCCUGCAGCAGCAACAGGUGCUUAGUAUCCUUCACGCCAACCCCCAGCUGUUGGCUGCAUUCAUCAAGCAGCGGGCUGCCAAGCAACAGAGGAUUGAGCAUCA
B10: chr11:35229396:35229958:+|3pUTR|ENSG00000026508|msi1|total|mutant (ssRNA)
RNA: GGGAGUUCUACAGUCCGACGAUCAUAUGUAUUCCUGAUCGCCAACCUUUCCCCCACCAGCUAAGGACAUUUCCCAGGGUUAACCGGGCCUGGUCCCUGGGAGGAAAUUUGAAUGGGUCCAUUUUGCCCUUCCACCGCCUAAUCCAACAGAGGAUUGAGCAUCA
B11: chr11:102693905:102694065:-|CDS|ENSG00000137675|control|control|control (ssRNA)
RNA: GGGAGUUCUACAGUCCGACGAUCCUUGCCAGAUUAUCCCAAAUCCAUCCAUACAUUAGGUUUUCCAGGACGUGUGAAGAAAAUAGAUGCAGCCGUCUGUGAUAAGACCACAAGAAAAACCUACUUCUUUGUGGGCAUUUGGUGCAACAGAGGAUUGAGCAUCA
B12: ENSG00000124766:be:win_2101|3pUTR|ENSG00000124766|bound_else_gene|NA|bound_elsewhere_windowed (ssRNA)
RNA: GGGAGUUCUACAGUCCGACGAUCUGCCCCCUCUGCAGCCGGAGGAGGAGAUGUUGAGGGGAGGAGGCCAGCCAGUGUGACCGGCGCUAGGAAAUGACCCGAGAACCCCGUUGGAAGCGCAGCAGCGGGAGCUAGGGGCGGGGGCAACAGAGGAUUGAGCAUCA
B13: chr18:3457781:3457936:+|CDS|ENSG00000177426|unk|total|mutant (ssRNA)
RNA: GGGAGUUCUACAGUCCGACGAUCCAACACUCCUCCCCCUACUCCACCGGACCUCAACCAGGACUUCAGUGGAUUUCAGCUUCCCGUGGAUGUUGCACUCAAACGGGCUGCAGAGAUGGAGCUUCAGGCAAAACUUACAGCUUACAACAGAGGAUUGAGCAUCA
B14: chr4:102887774:102887875:+|3pUTR|ENSG00000145354|msi1|FALSE|unique (ssRNA)
RNA: GGGAGUUCUACAGUCCGACGAUCUUGGUUUUGAUAAUCUGAAGUGUUUUUUUCUCGUUUUGGCCUUCCAAACUGCAUUUGGUUAGGUGAAUUAAGAAAAAUAUUGCCAUCAAGAAUUACUUGUGUUUUCACAGAGAUAGACUCCAACAGAGGAUUGAGCAUCA

Each binder was assayed against T1, UNK ZnF1-6 (called full-length) (assay: nsRBNS (natural sequence RNA bind-n-seq); RBNS binding buffer (assumed for nsRBNS): 25 mM Tris pH 7.5, 150 mM KCl, 3 mM MgCl2, 0.01% Triton X-100, 500 ug/ml BSA, 20 U/ml SUPERase-In, 4 C; UNK is unkempt and MSI1 is Musashi-1; names of the RNAs are library labels; protein concentration not given here; high values mean tight binding).
B1 gave a binding signal of 0.715 enrichment R. B2 was tested, and the binding signal was 0.816 enrichment R. B3 gave a binding signal of 0.346 enrichment R. Work on B4 yielded a binding signal of 0.434 enrichment R. Binder B5 has a binding signal of 0.699 enrichment R. B6 showed a binding signal of 0.95 enrichment R. B7 gave a binding signal of 0.248 enrichment R. B8 gave a binding signal of 0.632 enrichment R. B9 gave a binding signal of 0.945 enrichment R. With B10 the binding signal was 0.541 enrichment R. B11 showed a binding signal of 0.534 enrichment R. B12 gave a binding signal of 1.41 enrichment R. Work on B13 yielded a binding signal of 0.745 enrichment R. B14 showed a binding signal of 0.354 enrichment R.
